The text below walks through data of the supplement of paper PMC11417369.

± gives the standard deviation of the averaged measurements. The list shows a part of the results.

The subject of the assay is PfAP2-G AP2 domain (GST-tagged). The experiment in a line: gcPBM binding intensity (ln(normalized median fluorescence intensity)); higher = stronger DNA binding. The method in brief: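 The binding buffer was 1× PBS containing 1% milk, 0.2 mg/ml BSA, 0.5% salmon testes DNA and 0.03% Triton X-100. In it, GST-tagged P. falciparum DNA-binding domains expressed in E. coli were applied for 1 h to an Agilent 4 × 180k array of primer-extended double-stranded 36-bp intergenic genomic probes plus negative controls. Binding intensity, read with Alexa488 anti-GST antibody and a 488 nm scan, is the highest Masliner-normalised natural-log median intensity across replicate spots of either probe orientation.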
Take “TATATATATACAGTTGCATGTTGTGTTTAAAATTTT [TGCATGCA_site816]”: the “gcPBM binding intensity (ln)” value was 9.99 ± 0.26.

“TGTTAAAAAATGGATGCACACATTAAATAAAAAGTA [CACACA_site1660]”: the “gcPBM binding intensity (ln)” value is 10.28 ± 0.042.

Take “TAAAGGTAGATATATTGTACATACACACCTATATAA [XGTACX_site6865]”: the “gcPBM binding intensity (ln)” value was 10.9 ± 0.45.

Turning to “TCATTGAAAATTGTTGCACACATAATAATTAAATAT [CACACA_site8554]”, the “gcPBM binding intensity (ln)” value was 10.3 ± 0.28.

As for “ACACATATGTCTTCATGTACATAATATATAAATCTT [XGTACX_site3438]”, the “gcPBM binding intensity (ln)” value turned out to be 11.2 ± 0.71.

In the case of “CATAAATCAGCCATAACACACATACATATATACATA [CACACA_site8025]”, the “gcPBM binding intensity (ln)” value was 9.97 ± 0.057.

Regarding “ATAATATAAACGTATACACACAAGAGAAGCATAAAG [CACACA_site2889]”, the “gcPBM binding intensity (ln)” value worked out at 10.2 ± 0.22.

“AAAAGGAAAGGAAAGGGTACAATCCTATTATATTAT [XGTACX_site8652]”: the “gcPBM binding intensity (ln)” value came out at 11.1 ± 0.66.

Turning to “TTTTTTTAAAAAAAGGGTACATATATATATTTTTCT [XGTACX_site1066]”, the “gcPBM binding intensity (ln)” value is 11.3 ± 0.74.

As for “AAAAATAAATTTATATATTACAAGAACAAATATAGT [XGTACX_negctrl_site567]”, the “gcPBM binding intensity (ln)” value was 10.3 ± 0.28.

Regarding “GAATAAATAAGATACGTACACACATATACAAAATAT [CACACA_site3660]”, the “gcPBM binding intensity (ln)” value was 11.7 ± 1.1.

Regarding “TAATTATTTTAAAAAGTGCATTAAAAGATATTAAAT [GTGCAC_site9694]”, the “gcPBM binding intensity (ln)” value worked out at 10.1 ± 0.19.

“TTATTATAAAAATGTAGTACAATACTTTTTTTTTTT [XGTACX_site732]”: the “gcPBM binding intensity (ln)” value was 11.7 ± 0.84.

For the sequence “GTATTACATGAGGACACACACAAAAAAAATATATAT [CACACA_site769]”, the “gcPBM binding intensity (ln)” value is 11.2 ± 0.7.

Take “ATAAAATGAACAAACACACACACATATATTTATATA [CACACA_site7181]”: the “gcPBM binding intensity (ln)” value was determined as 10 ± 0.014.

“ATATACTTTAAAGGTTAAGAAAGAAAAAAAAAAAAA [CACACA_negctrl_site956]”: the “gcPBM binding intensity (ln)” value was 9.75 ± 0.28.

Consider “ATATATATATATTATATGCACACGTTAAAATTTCAT [CACACA_site709]”, for which the “gcPBM binding intensity (ln)” value stood at 10 ± 0.014.

For the sequence “TATATATCTATAAACACACACCAAAATTTGTGCTTT [CACACA_site7448]”, the “gcPBM binding intensity (ln)” value is 9.87 ± 0.042.

Consider “GAAGAGACTTAGAAAACACACATACATAAGATAATT [CACACA_site5333]”, for which the “gcPBM binding intensity (ln)” value worked out at 9.85 ± 0.057.

As for “AAAAAAAAAAAAAAAACACACATAAAACTATAATAA [CACACA_site7758]”, the “gcPBM binding intensity (ln)” value stood at 10.2 ± 0.24.

“TTAAAAAGATGTCACTGTACATAAAACATAAAATAT [XGTACX_site2886]”: the “gcPBM binding intensity (ln)” value was determined as 11.2 ± 0.78.

Regarding “TAAACAGACATATAAACACACATACATACATACATA [CACACA_site7215]”, the “gcPBM binding intensity (ln)” value was found to be 10 ± 0.17.

On to “TTTCATGACAATGTTTGTACATAATAAAATATATTT [XGTACX_site7039]”, for which the “gcPBM binding intensity (ln)” value stood at 11 ± 0.56.

With “ATATAGTAAAGTTATACACACATGAATTTTCCCATG [CACACA_site6923]”, the “gcPBM binding intensity (ln)” value is 10 ± 0.071.

Regarding “TTAGAAAAATTATATATACACACTTATATTTATATA [CACACA_site2821]”, the “gcPBM binding intensity (ln)” value worked out at 9.63 ± 0.085.

For “ATATATCAAAATAATTGTACAAATTTTATATAATTT [XGTACX_site7249]”, the “gcPBM binding intensity (ln)” value was 10.9 ± 0.5.

For “ATATGTATCTCATCGTGTACATGTATATAATATATA [XGTACX_site4139]”, the “gcPBM binding intensity (ln)” value stood at 11.3 ± 0.68.

With “AAAAAATTATATTATGCACACATCGTTATATATATA [CACACA_site1201]”, the “gcPBM binding intensity (ln)” value is 9.85 ± 0.014.

In the case of “TATATATACTATAACACACATACACCCAAAAAAAAA [CACACA_site536]”, the “gcPBM binding intensity (ln)” value was determined as 10.3 ± 0.3.

Regarding “GTCATATATAATTGTTGTACATTTTTATAATTATGT [XGTACX_site8091]”, the “gcPBM binding intensity (ln)” value amounted to 11.2 ± 0.71.

With “AATTTTCTTAAAATTTGTACGTATATATTTAATATA [XGTACX_site3906]”, the “gcPBM binding intensity (ln)” value was 11.3 ± 0.61.

As for “AATATAAATGTGATTACACACAACACATTTAAATGT [CACACA_site1212]”, the “gcPBM binding intensity (ln)” value came out at 9.985 ± 0.049.

For the sequence “CTTATACATATATATAGTACATATATCATTTTTATG [XGTACX_site4462]”, the “gcPBM binding intensity (ln)” value was found to be 10.9 ± 0.43.

Turning to “ATATATAATATTTATTGTACTATTTTATTTTTATAA [XGTACX_site705]”, the “gcPBM binding intensity (ln)” value stood at 11.2 ± 0.81.

Turning to “TTTGACATACCTCTTGCATGTGAAAAACTTTTCGCT [TGCATGCA_site364]”, the “gcPBM binding intensity (ln)” value was determined as 10 ± 0.099.

As for “AAAAAAGACCATGTTAGTACATAAGATTTTTTTCAT [XGTACX_site4298]”, the “gcPBM binding intensity (ln)” value was determined as 11.2 ± 0.83.

For “AATACGTTATTATTTTGTACATATAAATAATAAGTT [XGTACX_site815]”, the “gcPBM binding intensity (ln)” value turned out to be 10.9 ± 0.6.

“TTTTTTTTTTCTTTTTGTACATATTCATAACAAGTA [XGTACX_site2784]”: the “gcPBM binding intensity (ln)” value was 11 ± 0.7.

For “TATATAATCGAGTGCACACACAAAAAAAAAGTGAAC [CACACA_site1483]”, the “gcPBM binding intensity (ln)” value was found to be 10.6 ± 0.42.

With “TATTATATATATATCACACATATATTCATGTACATA [CACACA_site5432]”, the “gcPBM binding intensity (ln)” value turned out to be 11 ± 0.64.

“ACTCTTTTAACGCAAAGTACTTTTTAAAATATTTCG [XGTACX_site7534]”: the “gcPBM binding intensity (ln)” value was found to be 11.2 ± 0.54.

Turning to “AACATACGAATATTCACACATAAATATATAAATCGC [CACACA_site4672]”, the “gcPBM binding intensity (ln)” value was 10 ± 0.17.

For the sequence “ATTTCTATTTGGGTTAGTACATATAAGTCTATTTTC [XGTACX_site3234]”, the “gcPBM binding intensity (ln)” value was found to be 11 ± 0.6.

“ATAATATTATGTGTGAATATATCTTTAAAAAGGATA [GTGCAC_negctrl_site15]”: the “gcPBM binding intensity (ln)” value came to 9.865 ± 0.078.
